Test results from ChEMBL document CHEMBL4888484, “Replenishing the malaria drug discovery pipeline: Screening and hit evaluation of the MMV Hit Generation Library 1 (HGL1) against asexual blood stage Plasmodium falciparum ,using a nano luciferase reporter read-out” (2022).
Out of some 150,000 compounds screened, about 540 (0.36%) showed an effect of 50% or more. This is one part of the list.

These compounds were tested on Plasmodium falciparum (assay: Primary screen in NF54 nanoGlo assay, in single point, at 2uM, 72h; a lower Z score goes with more inhibition). Details: timepoint 72 hour.
Format: functional, Erythrocyte
For `O=C(Nc1ccc2c(c1)OCCO2)c1ccc(-c2ccnc(N3CCCC3)n2)cc1`, the “% Inhibition” value was 2% and the Z score was -0.23.
With `COCCn1nc2n(c1=O)CCC1(CC2)CCN(C(=O)c2ccc(C)s2)CC1` the “% Inhibition” value was 9% and the Z score was -1.05.
In the case of `CCOc1ccc(S(=O)(=O)N2CC[C@@]3(CCCOC3)C2)c(C)c1`, the “% Inhibition” value is reported as -1% and the Z score is reported as 0.12.
With `Nc1nnc(-c2cn(-c3ccccc3)nc2-c2ccc(F)cc2)s1` the “% Inhibition” value was 4% and the Z score was -0.53.
For `O=C(Cc1coc(-c2ccc(F)cc2)n1)NS(=O)(=O)C[C@H]1CCCCO1`, the “% Inhibition” value was -11% and the Z score was 1.68.
In the case of `Cc1[nH]ccc1C(=O)N(C)Cc1csc(C(C)(C)O)n1`, the “% Inhibition” value is reported as -11% and the Z score is reported as 1.48.
`Cc1ccc(CN(C)C(=O)c2nccnc2-c2nc3ccccc3s2)c(C)c1` was tested, and the “% Inhibition” value was -7% and the Z score was 1.18.
`COc1ccc(C(=O)NCCC(=O)NCc2ccco2)cc1OC` was tested, and the “% Inhibition” value was 6% and the Z score was -0.67.
With `COc1ccccc1N1CCN(CC[C@@H]2CC[C@H](O)[C@@H](C(=O)NC3CC3)O2)CC1` the “% Inhibition” value was 0% and the Z score was -0.05.
In the case of `CO[C@H]1CCOC[C@@H]1NC(=O)c1cc(Cl)ccc1O`, the “% Inhibition” value is reported as 11% and the Z score is reported as -1.91.
For `Cc1ccc(CNC(=O)CN2N=C(c3ccccc3)c3cc(Cl)ccc3S2(=O)=O)cc1`, the “% Inhibition” value was -14% and the Z score was 1.28.
For `Cc1noc(C(C)N2CCC(C(=O)OC(C)(C)C)C2)n1` (stereo not drawn), the “% Inhibition” value was -10% and the Z score was 0.89.
In the case of `COc1cccc(C(=O)N(CC(=O)Nc2nc(-c3ccccc3)cn2-c2cccc(C)c2)C2CC2)c1`, the “% Inhibition” value is reported as 6% and the Z score is reported as -0.87.
`Cc1nc2ccccc2nc1N1CCN(CCOc2ccccc2)CC1` was tested, and the “% Inhibition” value was -1% and the Z score was 0.25.
With `Nc1nc2c(c(N3CCc4[nH]nc(C5CCC5)c4C3)n1)CCNC2` the “% Inhibition” value was 10% and the Z score was -1.29.
With `O=C(O)c1ccc2c(c1)C=C(n1ccnc1)CC2` [ROLAFAGREL] the “% Inhibition” value was -4% and the Z score was 0.52.
In the case of `Cc1cc(C)c(CCNS(=O)(=O)CC2CCOCC2)c(C)c1`, the “% Inhibition” value is reported as 3% and the Z score is reported as -0.46.
`CN(C)C(=O)c1ccc(OCc2nnc(C(=O)Nc3ccccc3F)s2)cc1` was tested, and the “% Inhibition” value was -22% and the Z score was 2.04.
With `O=S(=O)(C[C@H]1CCOC1)N1CCc2cc(Br)ccc21` the “% Inhibition” value was 0% and the Z score was -0.04.
For `CNC(=O)NC1CCN(C(=O)c2scc(C)c2Cl)CC1`, the “% Inhibition” value was -6% and the Z score was 0.8.
With `C[C@@H](CN1CCOCC1)N(C)S(=O)(=O)c1cccc(N(C)C)c1` the “% Inhibition” value was -7% and the Z score was 1.19.
`CCC1(CC)CN(CC(N)=O)CC[S@@+]1[O-]` was tested, and the “% Inhibition” value was -20% and the Z score was 2.59.
In the case of `CC(=O)N1CC[C@H]2[C@H](CCCN2C2Cc3ccccc3C2)C1`, the “% Inhibition” value is reported as -14% and the Z score is reported as 1.6.
With `COC(=O)c1ccc(C(=O)N(C)Cc2cc(F)c(F)c(F)c2)cn1` the “% Inhibition” value was -6% and the Z score was 0.79.
With `O=C(Nc1cccc(-n2ccnn2)c1)N1CC[C@H](Oc2ccccc2Cl)C1` the “% Inhibition” value was -8% and the Z score was 1.25.
In the case of `Cn1cc(S(=O)(=O)NCc2cc(C3CC3)ncn2)cn1`, the “% Inhibition” value is reported as 16% and the Z score is reported as -2.16.
For `CC(C)Oc1c(Cl)cccc1NC(=O)C1CC1c1cnn(C)c1` (stereo not drawn), the “% Inhibition” value was -9% and the Z score was 1.26.
`Cc1nn(C)c(C)c1-c1cc(C(=O)N2C[C@H]3CC[C@@H](C2)N(C)C3=O)n(C)n1` was tested, and the “% Inhibition” value was 1% and the Z score was -0.15.
With `O=C(NCc1ccc(F)cc1)c1nn(-c2ccccc2Cl)nc1CO` the “% Inhibition” value was -9% and the Z score was 1.54.
`CC[C@@H](C(=O)Nc1ncn(CC(=O)N(C)C)n1)c1ccc(F)cc1` was tested, and the “% Inhibition” value was -7% and the Z score was 0.77.
`COc1ccc(S(=O)(=O)N2CCOC[C@H](Oc3cccnc3)C2)cc1` was tested, and the “% Inhibition” value was 4% and the Z score was -0.58.
For `Cn1cnc(NS(=O)(=O)c2ccc3c(c2)CCCC3)c1C(N)=O`, the “% Inhibition” value was -12% and the Z score was 1.82.
In the case of `COC(=O)c1ccc(Cn2ccnc2-c2ccncc2)cc1`, the “% Inhibition” value is reported as -8% and the Z score is reported as 1.49.
`c1cc(CCN2CCc3cncnc3C2)ccn1` was tested, and the “% Inhibition” value was -6% and the Z score was 0.87.
For `Cc1cc(C)c(S(=O)(=O)NCCC2CCN(C(=O)c3ccccc3)CC2)cc1C`, the “% Inhibition” value was -6% and the Z score was 0.71.
For `COc1cccc(CN[C@H]2CCCn3nc(C(C)C)nc32)n1`, the “% Inhibition” value was -3% and the Z score was 0.34.
With `Cc1ccc(NCC(=O)Nc2nc(-c3ccc(Cl)cc3)cc(-c3ccc(Cl)cc3)n2)cc1` the “% Inhibition” value was -6% and the Z score was 1.01.
With `COc1ncccc1-c1ccncc1C` the “% Inhibition” value was -9% and the Z score was 1.31.
`Cc1nonc1CN(C)C(=O)C[C@@H](c1cccc(O)c1)c1cccc(Cl)c1` was tested, and the “% Inhibition” value was -3% and the Z score was 0.3.
`CC[C@H]1CCc2c(sc(NC(=O)CCC(=O)O)c2C(=O)NC2CCCCC2)C1` was tested, and the “% Inhibition” value was -12% and the Z score was 1.67.
`CCN(CC)c1onc(-c2ccccc2)c1CN(CCC(C)C)C(C)=O` was tested, and the “% Inhibition” value was -4% and the Z score was 0.51.
In the case of `CC(COC1CCOC1)NC(=O)C1Cc2cc(F)ccc2NC1=O` (stereo not drawn), the “% Inhibition” value is reported as -3% and the Z score is reported as 0.45.
For `O=C(NC1CCCCC1)c1ccc(S(=O)(=O)N[C@H]2CCOC2)cc1`, the “% Inhibition” value was 0% and the Z score was -0.1.
With `CCOc1ccc(C(=O)NCC2(N3CCCCC3)CCOCC2)cc1` the “% Inhibition” value was -10% and the Z score was 1.28.
`COc1cccc(C(=O)Nc2cccc3c2C(=O)N(c2ccccc2)C3=O)c1` was tested, and the “% Inhibition” value was -7% and the Z score was 1.11.
For `CCOc1ccc(CN2CCC3(CC2)C(O)CC3OCC)cc1F` (stereo not drawn), the “% Inhibition” value was 5% and the Z score was -0.54.
With `Cc1ccc(OCC(=O)N2CCC3(CC2)C[C@@H](N2CCOCC2)CCO3)cc1` the “% Inhibition” value was -9% and the Z score was 1.15.
With `Cn1ccc(NC(=O)NCC(=O)Nc2ccc(F)cc2)n1` the “% Inhibition” value was -4% and the Z score was 0.55.
For `COC(=O)c1cc(N)cc(Cl)c1F`, the “% Inhibition” value was -4% and the Z score was 0.78.
In the case of `O=C(CC1=Nc2ccccc2S(=O)(=O)N1)Nc1ccc(F)cc1F`, the “% Inhibition” value is reported as -2% and the Z score is reported as 0.2.
For `Cc1cc(-c2ccccc2)nc2oc(C(=O)c3ccc(-c4ccccc4)cc3)c(N)c12`, the “% Inhibition” value was -30% and the Z score was 3.5.
With `CCC(C)C(NC(=O)C1CCCC1)c1nc(-c2cccc(C)c2)no1` (stereo not drawn) the “% Inhibition” value was -17% and the Z score was 2.08.
`CCOc1cc(C(=O)N2CCc3c(CN4CCCC4)cccc32)on1` was tested, and the “% Inhibition” value was 0% and the Z score was 0.04.
With `CC[C@H](NC(=O)c1cnc(C2CC2)nc1)c1cnn(C)c1` the “% Inhibition” value was -8% and the Z score was 1.65.
